# Data taken from the supplement of paper PMC10369915.
# The other results are listed elsewhere or left out. No stated cut-off is given here; in the data, active = 3.2 or more and inactive = the rest. The signal is at background level for most entries.
# What was measured:
# Assay in all cases: enrichment score (SH2-bound / input frequency) (ratio); bacterial display of known human phosphotyrosine sites (pTyr-Var adds point mutants) read by sequencing; higher = stronger binding; tyrosines were phosphorylated by kinases first
# Details in all cases: peptide library: pTyr-Var
# SHP2 C-SH2 domain E139D = biological target: SHP2 C-SH2 domain E139D
# [1] = biological target: SHP2 C-SH2 domain wild-type
# SHP2 N-SH2 domain L43F = biological target: SHP2 N-SH2 domain L43F
# SHP2 N-SH2 domain T42A = biological target: SHP2 N-SH2 domain T42A
# SHP2 N-SH2 domain T52S = biological target: SHP2 N-SH2 domain T52S
# [2] = biological target: SHP2 N-SH2 domain wild-type
# 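Further: displayed peptides selected on beads carrying the immobilized SH2 domain, with library peptides lacking any tyrosine serving as negative controls.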
Binder,enrichment score (SHP2 C-SH2 domain E139D),enrichment score [1],enrichment score (SHP2 N-SH2 domain L43F),enrichment score (SHP2 N-SH2 domain T42A),enrichment score (SHP2 N-SH2 domain T52S),enrichment score [2]
LLDGEYFTLQI [TP53_Y327_P322L],inactive: 0.984,inactive: 0.887,inactive: 0.568,inactive: 1.24,inactive: 0.914,inactive: 1.31
PLDGEYFTLHI [TP53_Y327_Q331H],inactive: 0.917,inactive: 1.09,inactive: 0.863,inactive: 0.725,inactive: 0.837,inactive: 1.15
PLDGEYFTLPI [TP53_Y327_Q331P],inactive: 0.895,inactive: 0.908,inactive: 0.825,inactive: 0.809,inactive: 0.725,inactive: 0.956
PMWHPYKVDVT [TP53TG5_Y255],inactive: 1.39,inactive: 2.06,inactive: 2.23,inactive: 1.53,inactive: 1.95,inactive: 1.74
PMWHPYKADVT [TP53TG5_Y255_V257A],inactive: 1.28,inactive: 0.981,inactive: 1.45,inactive: 1.02,inactive: 1.21,inactive: 1.07
PSNTDYPGPHS [TP63_Y171],inactive: 0.53,inactive: 0.486,inactive: 0.506,inactive: 0.597,inactive: 0.343,inactive: 0.588
PSNTEYPGPHS [TP63_Y171_D170E],inactive: 0.291,inactive: 0.633,inactive: 0.475,inactive: 0.632,inactive: 0.45,inactive: 0.689
RAMPVYKEAEH [TP63_Y231_K233E],inactive: 0.922,inactive: 0.746,inactive: 0.653,inactive: 0.638,inactive: 0.896,inactive: 1.08
AAQNCYKVTNG [TPI1_Y105],inactive: 0.62,inactive: 0.675,inactive: 0.485,inactive: 0.478,inactive: 0.759,inactive: 0.535
EADRKYEEVAC [TPM3_Y163_R168C],inactive: 0.454,inactive: 0.587,inactive: 0.479,inactive: 1.07,inactive: 0.489,inactive: 0.642
EADRKYEEVAG [TPM3_Y163_R168G],inactive: 0.464,inactive: 0.393,inactive: 0.258,inactive: 0.511,inactive: 0.425,inactive: 0.391
EADRKYEEVAH [TPM3_Y163_R168H],inactive: 0.534,inactive: 0.443,inactive: 0.381,inactive: 0.74,inactive: 0.449,inactive: 0.86
VDTAMYATMQR [TPO_Y55],inactive: 0.742,inactive: 0.733,inactive: 0.652,inactive: 0.659,inactive: 0.701,inactive: 0.803
VDTPMYATMQR [TPO_Y55_A53P],inactive: 0.717,inactive: 0.733,inactive: 0.732,inactive: 0.755,inactive: 0.564,inactive: 0.728
ALSDGYWVVSN [TPP1_Y459],inactive: 0.758,inactive: 0.979,inactive: 0.663,inactive: 0.666,inactive: 0.73,inactive: 1.01
SNVEQYQAMVT [TPR_Y965],inactive: 0.579,inactive: 0.577,inactive: 0.565,inactive: 0.575,inactive: 0.613,inactive: 0.649
SRLDSYVRSLP [TRAPPC1_Y133],inactive: 0.836,inactive: 0.677,inactive: 0.753,inactive: 0.681,inactive: 0.632,inactive: 0.7
ASPALYRLDLD [TRIL_Y352],inactive: 0.865,inactive: 0.765,inactive: 0.903,inactive: 0.693,inactive: 0.878,inactive: 0.789
WNRDKYAATTT [TRIM39_Y439_G436R],inactive: 0.784,inactive: 0.65,inactive: 0.722,inactive: 0.5,inactive: 0.547,inactive: 0.649

Binder,enrichment score (SHP2 C-SH2 domain E139D),enrichment score [1],enrichment score (SHP2 N-SH2 domain L43F),enrichment score (SHP2 N-SH2 domain T42A),enrichment score (SHP2 N-SH2 domain T52S),enrichment score [2]
PPSGEYFGHCG [TRIP6_Y275_Q278H],inactive: 0.728,inactive: 0.881,inactive: 0.652,inactive: 0.684,inactive: 0.463,inactive: 0.761
ISSLRYKLLEE [TRPC6_Y896_E897K],inactive: 1.01,inactive: 0.931,inactive: 0.992,inactive: 0.92,inactive: 1.08,inactive: 0.928
ISSLCYELLEE [TRPC6_Y896_R895C],inactive: 1.17,inactive: 1.04,inactive: 1.08,inactive: 0.8,inactive: 1.02,inactive: 1.71
AQMAMYFWEMS [TRPM4_Y577_G582S],inactive: 2.86,inactive: 2.93,inactive: 3.01,inactive: 2.31,inactive: 2.48,inactive: 3.09
QPDLLYDHIQP [TRRAP_Y862_F860L],inactive: 1.06,inactive: 0.679,inactive: 0.653,inactive: 0.72,inactive: 0.695,inactive: 1.16
DTQNSYGCATS [TSC1_Y304],inactive: 0.509,inactive: 0.374,inactive: 0.535,inactive: 0.729,inactive: 0.545,inactive: 0.379
DTQNSYWCATS [TSC1_Y304_G305W],inactive: 0.612,inactive: 0.666,inactive: 0.564,inactive: 0.587,inactive: 0.551,inactive: 0.757
CHSDDYVHISL [TSC1_Y406],inactive: 0.79,inactive: 0.876,inactive: 0.841,inactive: 0.74,inactive: 0.764,inactive: 0.859
CHSDDYVHISI [TSC1_Y406_L411I],inactive: 0.839,inactive: 0.99,inactive: 0.827,inactive: 0.709,inactive: 0.764,inactive: 0.94
FVSIVYSDSGE [TSC2_Y1650_N1651S],inactive: 1.92,inactive: 1.62,inactive: 1.87,inactive: 1.56,inactive: 1.92,inactive: 1.81
FVSIVYNDFGE [TSC2_Y1650_S1653F],active: 4.79,active: 3.55,active: 3.77,active: 3.49,active: 4.56,active: 3.83
FVSIVCNDSGE [TSC2_Y1650_Y1650C],inactive: 1.62,inactive: 2.08,inactive: 1.39,inactive: 1.54,inactive: 1.45,inactive: 2.23
EPTPSYEVGQR [TSC2_Y1788_G1787S],inactive: 0.564,inactive: 0.381,inactive: 0.422,inactive: 0.503,inactive: 0.529,inactive: 0.46
GSQERDFELVE [TSC2_Y407_Y407D],inactive: 0.466,inactive: 0.348,inactive: 0.465,inactive: 0.396,inactive: 0.369,inactive: 0.445
ARMTNCGLPRF [TSPAN12_Y138_Y138C_YF],inactive: 1.03,inactive: 0.936,inactive: 0.988,inactive: 0.835,inactive: 0.944,inactive: 0.999
YGLPRYRWLTH [TSPAN12_Y143],inactive: 0.318,inactive: 0.194,inactive: 0.322,inactive: 0.217,inactive: 0.25,inactive: 0.288
CGLPRYRWLTH [TSPAN12_Y143_Y138C],inactive: 0.42,inactive: 0.426,inactive: 0.407,inactive: 0.313,inactive: 0.421,inactive: 0.364
FGLPRYRWLTH [TSPAN12_Y143_YF],inactive: 0.335,inactive: 0.381,inactive: 0.224,inactive: 0.477,inactive: 0.36,inactive: 0.389
